# Test results as given in PubChem BioAssay AID488969 (Vanderbilt High Throughput Screening Facility, 2010).
# Whole data set: some 110,000 compounds, median “z-score” near -0.1, cut for the highest 2% near 2. This is one part of the list. Activity calls are given as the source filed them.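 How the source made its calls: active means z-score in the third read window above 3 or below -3; inactive means the rest.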
# Target: Metabotropic glutamate receptor 8 (Rattus norvegicus) (UniProt P70579)
# Test: rat mGluR8 modulators via GIRK flux, primary screen, cell-based, thallium flux, HTS (AID 488969)
# Settings: HEK293 rat mGluR8, GIRK (G protein-gated inwardly rectifying potassium channel) thallium flux, FluoZin2; at 10 µM; stronger effect = higher value; submaximal glutamate (EC20) added with thallium
# UniProt P70579, sequence (P70579 whole entry, looked up): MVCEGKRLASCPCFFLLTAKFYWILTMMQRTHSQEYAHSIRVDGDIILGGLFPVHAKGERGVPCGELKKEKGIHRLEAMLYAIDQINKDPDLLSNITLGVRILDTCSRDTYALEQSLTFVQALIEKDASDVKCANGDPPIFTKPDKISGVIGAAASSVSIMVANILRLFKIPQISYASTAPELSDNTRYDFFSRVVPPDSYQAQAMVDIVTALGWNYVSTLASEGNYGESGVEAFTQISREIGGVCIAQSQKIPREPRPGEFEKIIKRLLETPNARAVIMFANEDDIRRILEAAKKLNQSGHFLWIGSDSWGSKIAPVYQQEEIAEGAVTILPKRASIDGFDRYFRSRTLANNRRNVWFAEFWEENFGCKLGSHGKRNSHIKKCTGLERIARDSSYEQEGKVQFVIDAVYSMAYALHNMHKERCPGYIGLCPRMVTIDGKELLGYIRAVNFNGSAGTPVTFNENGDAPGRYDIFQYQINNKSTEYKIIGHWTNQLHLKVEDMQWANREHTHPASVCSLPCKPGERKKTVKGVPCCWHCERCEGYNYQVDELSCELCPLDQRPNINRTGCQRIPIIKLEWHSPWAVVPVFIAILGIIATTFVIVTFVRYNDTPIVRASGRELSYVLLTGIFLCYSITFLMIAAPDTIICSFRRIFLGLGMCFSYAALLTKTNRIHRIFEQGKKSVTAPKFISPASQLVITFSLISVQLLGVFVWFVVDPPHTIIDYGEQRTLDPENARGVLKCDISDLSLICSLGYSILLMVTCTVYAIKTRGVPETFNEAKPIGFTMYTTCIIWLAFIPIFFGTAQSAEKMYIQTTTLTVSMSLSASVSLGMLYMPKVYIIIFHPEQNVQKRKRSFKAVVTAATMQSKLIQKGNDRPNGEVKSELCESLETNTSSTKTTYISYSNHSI
row,Structure (SMILES),z-score
1,N=C1C(c2nc(-c3ccc(F)cc3)cs2)=C(O)CN1CCCN1CCOCC1,0.288
2,O=C1CCC/C(=N/NC(=O)c2ccc(CN3c4cccc5cccc(c45)S3(=O)=O)cc2)C1,-0.115
3,CC(C)c1ccc(/C=C/C(=O)n2nnc3ccccc32)cc1,0.601
4,O=C(CCc1nc(-c2ccccc2F)no1)NC1CCN(Cc2ccccc2)CC1,0.608
5,N#C/C(=N\Nc1ccccc1)C(=N)N1CCOCC1,0.135
6,CCCCn1c(NCCN(C)C)nc2c1c(=O)[nH]c(=O)n2C,0.337
7,Cc1ccc(NC(=O)CCN2CCN(C/C=C/c3ccccc3)CC2)cc1C,0.543
8,Cc1nn(Cc2ccccc2)c(C)c1NC(=O)CCC(=O)O,-0.119
9,CN(C)CCNc1nc(-c2ccccc2)c2c(c1C#N)CC(C)(C)OC2,-0.264
10,Cc1ccc(C2=[N+]([O-])C3(CCCCC/C3=N\NC(N)=O)N(O)C2(C)C)o1 (centres undefined),-0.0325
11,COC(=O)CCn1nnc(-c2ccc(C(C)C)cc2)n1,-0.177
12,Cc1ccc(-c2cnn(-c3cccc([N+](=O)[O-])c3)c2N)cc1,-0.173
13,CCOC(=O)C(CC)(CC)/C(C)=N/NC(=O)CC#N,0.316
14,N#Cc1c(/N=C/c2cccs2)sc2c1CCCCC2,-0.587
15,Cc1ccc(-c2csc(NC(=O)c3ccno3)n2)cc1,0.118
16,CC(C)(C)c1ccc(C2CC2C(=O)N/N=C\c2cc3ccccc3nc2Cl)cc1 (centres undefined),-0.118
17,c1ccc(-c2nc(-c3ccco3)cs2)nc1,1.2
18,Cc1ccc(/C=c2\sc3nc(-c4cccs4)nn3c2=O)o1,-0.419
19,Cn1c(=O)c2ncn(CC(=O)Nc3ccc4c5c(cccc35)CC4)c2n(C)c1=O,1.66
20,Cc1cc(C)nc(SCc2nnc(SCC(=O)Nc3nc(-c4ccccc4)cs3)n2-c2ccccc2)n1,-0.227
21,Cc1ccc2nc(SC(C)C(=O)NCc3ccco3)[nH]c2c1 (centres undefined),0.142
22,Cc1cc(C)c2c(-n3cccc3)c(C(=O)NNS(=O)(=O)c3ccccc3)sc2n1,-0.415
23,O=C(Cc1ccccc1)N/N=C/c1ccc(OC(=O)/C=C\c2ccco2)cc1,-0.0554

row,Structure (SMILES),z-score
1,CC(C)(C)c1ccc(OCC(=O)NCCN2CCCC2)cc1,0.285
2,Cn1c(=O)c2sccc2n2c(CCCC(=O)NCc3ccc4c(c3)OCO4)nnc12,-0.304
3,Cc1cc(NC(=O)CCCC(=O)N(CC(=O)NC2CCCCC2)c2ccccc2)no1,-0.038
4,O=C(CSc1ccc(/C=N/NC(=O)c2cccc(F)c2)o1)Nc1ccccc1,-0.589
5,COc1ccc(CC(=O)NNc2ncnc3c2cnn3-c2ccccc2)cc1,-0.0867
6,COc1cc(/C=C2/C(=N)N3OC(C)=CC3=NC2=O)ccc1OCCOc1ccc(C)cc1,-0.224
7,Cc1ccc(S(=O)(=O)N2CCOCC2)cc1C(=O)NCc1cn2ccsc2n1,-0.137
8,Cc1ccccc1NC1=NC(C)(C)N=C(N)N1,-0.227
9,CCc1ccc(-c2csc(NC(=O)C3=NN(c4ccccc4)C(=O)CC3)n2)cc1,-0.2
10,COc1ccc(-n2nc([N+](=O)[O-])c(=NCCc3ccc(OC)c(OC)c3)n2O)cc1,-0.0116
11,CCCOC(=O)c1ccc(Oc2cn[nH]c2-c2ccc(OC)cc2O)cc1,-0.53
12,Cc1ccc(C(=O)O/N=C2\CCCc3ccccc32)cc1,-0.149
13,N/C(Cc1ccc([N+](=O)[O-])cc1)=N\OC(=O)COc1cccc2ccccc12,-0.185
14,CC(=O)Nc1ccc(NC(=O)COC(=O)c2c(C)nn(-c3ccccc3)c2C)cc1,-0.546
15,CC(C)(C)c1ccc(OCc2ccc(C(=O)N/N=C/c3ccc([N+](=O)[O-])cc3)o2)cc1,-0.4
16,COc1ccc(S(=O)(=O)Nc2cccc(N(C)S(C)(=O)=O)c2)cc1Br,-0.0878
17,O=C1CC(c2cccc(Br)c2)c2cc3c(cc2N1)CCC3 (centres undefined),-0.00205
18,CCOc1ccc(NC(=O)Nc2ccc(N(C)C(C)=O)cc2)cc1,0.478
19,COc1ccc(N=C(N(C)C)P(=O)(N(C)C)N(C)C)cc1,0.372
20,O=[N+]([O-])c1ccc(NC(=S)N/C(=N/CS(=O)(=O)c2ccccc2)c2ccccc2)cc1,0.245
21,O=C(CCn1c(=O)oc2ccccc21)N1CCOCC1,-0.393
22,O=C(/C(=C/c1ccccc1)c1ccccc1)N1CCCCC1,-0.248
23,Cc1cc(N2C(=O)C(O)=C(C(=O)c3cccs3)C2c2cccc(O)c2)no1 (centres undefined),-0.216

row,Structure (SMILES),z-score
1,Cc1cccc(NC(=S)NN2CCN(C)CC2)c1,-0.088
2,CCN(CC(=O)NC1CCCCCC1)S(=O)(=O)c1ccccc1,-0.176
3,COc1ccccc1Nc1nc2ccccc2[nH]1,0.699
4,Cc1ccc(Nc2ccc(-n3ccnc3)nn2)cc1C,0.0826
5,Clc1ccc(-c2nc(Cc3ccccc3)no2)cc1,-0.129
6,O=C(Nc1nccs1)c1cccc(NC(=O)c2ccco2)c1,-0.296
7,COc1ccc(CNC(=O)c2cc3c(C)nc4ccccc4c3o2)c(OC)c1,-0.209
8,N#Cc1c(-c2ccccc2Cl)cc(C2CC2)nc1N,0.952
9,COc1cccc(C(c2c(NC(=O)c3ccccc3)sc(C)c2C)N2CCN(C)CC2)c1 (centres undefined),-0.221
10,CCCC(=O)NC(c1ccc(OC)c(OC)c1)c1c(O)ccc2ccccc12 (centres undefined),-0.164
11,O=C1c2cccc3cc(Br)cc(c23)C(=O)N1Nc1ccc(Br)cc1,-0.252
12,COC(=O)C1Cc2c([nH]c3ccccc23)C(C)N1 (centres undefined),-0.00869
13,Cc1ccc(Cn2ccc(=O)c(Cc3c(Cl)cccc3Cl)c2C)cc1,-0.227
14,CCCCOc1ccc(Br)cc1/C(C)=N/NC1=NCCN1,1.54
15,COc1cc(C2NC(=S)NC(C)=C2C(=O)OC(C)C)ccc1OC(C)C (centres undefined),-0.28
16,CCn1c(=NC(=O)CSC(C)=O)sc2cc(OC)ccc21,0.477
17,Cc1ccccc1C(=O)NC(=S)Nc1ccc(Cc2ccncc2)cc1,-0.501
18,CC1CC(C)CN(C(=O)c2ccccc2Nc2ccc(SC(F)F)cc2)C1 (centres undefined),-0.146
19,O=C(CN1CCN(c2ncccn2)CC1)N1CCc2ccccc21,-0.0193
20,Cc1c(Cl)cccc1NC(=S)N1CCN(c2ncccn2)CC1,-0.0626
21,COc1ccc(Cn2c(=O)[nH]c3cc(C(=O)NCCCN4CCCC4=O)ccc3c2=O)cc1,-0.401
22,CSCSC1=C(C#N)C(c2ccc(Cl)cc2)C(C(C)=O)=C(C)N1 (centres undefined),active: 3.87
23,CCCNC(=O)C1CCN(S(=O)(=O)c2c(C)noc2/C=C\c2ccc(OC)cc2)CC1,-0.554
